Results from PubChem BioAssay AID624296 (National Center for Advancing Translational Sciences (NCATS), 2012).
Hit rate of the full screen: of about 350,000 compounds, about 9,900 (2.8%) were called active. This list was built around the results that the source calls inconclusive (neither active nor inactive); the mix of calls is not that of the screen. Calls follow the shape of the dose curve; as a rule, active = well fitted activation curve with a large enough effect; inconclusive = small, poorly fitted or top-dose-only effect; inactive = no such curve, though single readings can be large or run the other way. No potency is given beside an inconclusive call; the fits are too rough.

Experiment: A quantitative high throughput screen for small molecules that induce DNA re-replication in MCF 10a normal breast cells. Also: nearly all actives have a fitted effect of over 50% in size. As to activity, positive = re-replication: % of control where 0% means no effect.
Details: MCF 10A DNA re-replication, Hoechst nuclear intensity, 48 h; activity, positive = re-replication: at 46.1 µM (top of the series)
Potency is read from the fitted curve at half-maximal effect; tags tell the direction and shape of the fitted curve.

Structure (SMILES)	Potency	activity, positive = re-replication
Oc1c(C=Nc2ccccc2)sc(=S)n1Cc1ccccc1	inconclusive [activator, single point]	
Cc1nn(-c2ccc(Cl)c(Cl)c2)c(=O)c2ccccc12	inconclusive [activator, partial curve, poor fit]	
O=C1CC(N2CCN(c3ccc(Cl)c(Cl)c3)CC2)C(=O)N1 (stereo not drawn)	inconclusive [activator, partial curve, poor fit]	
CCNc1cc2oc(=O)c(CN3CCOCC3)c(C)c2cc1C	inconclusive [activator, partial curve, poor fit]	
COc1ccc(-c2ncc(CN3CCC(CO)(Cc4cccc(OC)c4)CC3)cn2)cc1	inconclusive [activator, single point]	
C[C@@H]1CC[C@]2(C(=O)O[C@@H]3O[C@H](CO)[C@@H](O)[C@H](O)[C@H]3O)CC[C@]3(C)C(=CCC4[C@@]5(C)C[C@@H](O)[C@H](O)[C@@](C)(C(=O)O[C@@H]6[C@H](O)C[C@@]7(C)C(CC[C@]8(C)C7CC=C7[C@H]9[C@](C(=O)O[C@@H]%10O[C@H](CO)[C@@H](O)[C@H](O)[C@H]%10O)(CC[C@@H](C)[C@@]9(C)O)CC[C@]78C)[C@@]6(CO)C(=O)O)C5CC[C@]43C)[C@@H]2[C@]1(C)O (stereo partly drawn)		inactive: -4.07%
c1ccc(N2N=C(c3cccs3)CC2c2ccco2)cc1 (stereo not drawn)	active: 8.2 µM	
CCOc1ccc(S(=O)(=O)N2CCOCC2)cc1NC(=O)CN1C(=O)NC(CC)(c2ccccc2)C1=O (stereo not drawn)	inconclusive [activator, single point]	
CCOC(=O)c1cccc(NC(=O)CSc2nc3cccnc3n2C)c1	inconclusive [activator, partial curve, poor fit]	
CC(C)NC(=O)/C(C#N)=C/c1cccc(NC(=O)c2ccccc2Cl)c1	inconclusive [activator, single point]	
CN(C(=O)CSc1nnc(-c2ccco2)n1Cc1ccccc1)C1CCS(=O)(=O)C1 (stereo not drawn)	inconclusive [activator, single point]	
COC(=O)c1cc(=O)n(Cc2ccco2)c(=Nc2ccc(F)c(Cl)c2)s1	active: 7.31 µM	
Cc1ccc(C)c(NC(=O)CN(C)C(=O)c2cc(C3CC3)nn2-c2ccccc2)c1		inactive: -2.35%
Cc1ccc(OCC(=O)Nc2ccc3c(c2)C(=O)NC3=O)cc1		inactive: -2%
COc1cc(C2NCC(c3ccc(Cl)cc3Cl)c3c2[nH]c2ccccc32)cc(OC)c1OC (stereo not drawn)	active: 18.4 µM	
Cn1c(=O)n(C)c2cc([N+](=O)[O-])c(N3CCN(C(=O)C(C)(C)C)CC3)cc21		inactive: -2.45%
COc1ccc(C(=O)N/N=C/c2ccc(OC)c(COc3c(F)c(F)cc(F)c3F)c2)cc1	inconclusive [activator, partial curve, poor fit]	
CCn1c2ccccc2c2cc(N)ccc21	inconclusive [activator, partial curve, poor fit]	
COc1cccc(CC2(CO)CCN(CC3=CC[C@H]4C[C@@H]3C4(C)C)CC2)c1	inconclusive [activator, single point]	
Cc1nn(CCCC(=O)NCc2ccc(F)cc2)c(=O)c2nccn12	inconclusive [activator, partial curve, poor fit]	
Cc1cc(NC(=O)CC2CCCC2)n(-c2nc3ccccc3[nH]2)n1	inconclusive [activator, partial curve]	

Structure (SMILES)	Potency	activity, positive = re-replication
COc1cc2c(cc1OC)C(C)N(C(=O)Nc1ccccc1)CC2 (stereo not drawn)	inconclusive [activator, full curve]	
O=S(=O)(c1ccc(-c2csc(-c3cccnc3)n2)cc1)N1CCOCC1	inconclusive [activator, partial curve, poor fit]	
COc1ccc(NC(=S)Nc2ncccc2C)cc1OC	inconclusive [activator, partial curve, poor fit]	
CN(C#N)c1nc(Cl)nc(Nc2cccc(Cl)c2)n1	inconclusive [activator, single point]	
CC(NC(=O)c1cccc(C(F)(F)F)c1)C(c1ccccc1)N1CCOCC1 (stereo not drawn)	inconclusive [activator, partial curve, poor fit]	
CC(=O)c1sc(NC(=O)c2ccc(F)cc2)nc1-c1ccccc1	inconclusive [activator, partial curve, poor fit]	
CC(C)(C)OC(=O)NCCCC[C@H](NC(=O)c1nc[nH]c1C(=O)NCc1ccccc1)C(=O)OC(C)(C)C	inconclusive [activator, single point]	
CCOc1ccccc1NC(=S)Nc1ncccc1C	active: 18.4 µM	
CCOC(=O)N1CCN(Cc2nc3cc(NC(=O)CC(C)C)ccc3n2C)CC1	inconclusive [activator, full curve, poor fit]	
O=C(NC(=S)N1CCCC(C(F)(F)F)C1)c1ccc(F)cc1 (stereo not drawn)		inactive: 22%
Cc1cccc(C)c1OCc1cc(C(=O)N(Cc2nccn2C)C(C)C)no1		inactive: 1.62%
CC(Oc1ccccc1F)c1nnc(SCC(=O)Nc2ccc(N3CCOCC3)cc2)o1 (stereo not drawn)		inactive: -5.72%
CC(C)(C)c1ccc(-n2nc(C(N)=O)c(O)cc2=O)cc1		inactive: 22.9%
Cc1cccc(OCc2nnc(SCC(=O)N(c3ccccc3)C3CCS(=O)(=O)C3)o2)c1 (stereo not drawn)		inactive: 4.63%
Cc1cccc(NC(=O)c2ccc(COc3cccc4ccccc34)o2)n1	inconclusive [activator, partial curve]	
Cc1cc(NC(=O)/C=C/c2ccco2)ccc1NC(=O)c1ccccc1		inactive: 17.3%
CCOC(CCn1c(SCC(=O)Nc2cc(C)on2)nc2ccccc2c1=O)OCC		inactive: 2.03%
COC(C(=O)C(O)C(C)O)C1Cc2cc3cc(OC4CC(OC5CC(O)C(O)C(C)O5)C(O)C(C)O4)c(C)c(O)c3c(O)c2C(=O)C1OC1CC(OC2CC(OC3CC(C)(O)C(O)C(C)O3)C(O)C(C)O2)C(O)C(C)O1 (stereo not drawn)	inconclusive [activator, full curve, poor fit]	
CCOc1ncccc1C(=O)Nc1ccccc1C(=O)NCc1ccc2c(c1)OCO2	inconclusive [activator, partial curve, poor fit]	
O=C(CCl)Nc1cccc(S(=O)(=O)NC2=NCCCCC2)c1	inconclusive [activator, single point]	
Cc1ccc(-c2csc(N/N=C/c3ccco3)n2)c(C)c1	inconclusive [activator, partial curve, poor fit]	

Structure (SMILES)	Potency	activity, positive = re-replication
Cc1ccc2nc(N3CCN(C(=O)c4ccco4)CC3)sc2c1		inactive: 17%
CCOC(=O)c1cccc(C2=CC(=O)CC(C)(C)C2)c1		inactive: -5.73%
Cc1sc2ncnc(N3CCN(Cc4ccccc4)CC3)c2c1-c1ccccc1	active: 16.4 µM	
CCc1ccc(C2=NNC(=Nc3cccc(S(=O)(=O)N(C)C)c3)SC2)cc1	inconclusive [activator, single point]	
Cc1cccc(N=CC=C2OC(C)(C)C(C)(C)O2)c1	inconclusive [activator, single point]	
COCCN1CCn2c(nc3cc(NC(=O)c4cccs4)ccc32)C1	inconclusive [activator, single point]	
CC1CN(c2c(F)c(N)c3c(=O)c(C(=O)O)cn(C4CC4)c3c2F)CC(C)N1 (stereo not drawn)		inactive: -2.13%
Cc1sc(NC(=O)c2ccccc2F)c(CN2CCCCC2C)c1C (stereo not drawn)	inconclusive [activator, partial curve, poor fit]	
CN(CCO)C1=NS(=O)(=O)c2cc([N+](=O)[O-])ccc21	inconclusive [activator, single point]	
O=C(COC(=O)C1(c2cccc(F)c2)CCCC1)NCc1cccs1	inconclusive [activator, partial curve, poor fit]	
CC(OC(=O)c1c2c(nc3ccccc13)/C(=C\c1ccc3c(c1)OCO3)CCC2)C(=O)Nc1ccc(S(N)(=O)=O)cc1 (stereo not drawn)	active: 3.26 µM	
O=C(NCCc1ccccc1)c1cccc(NC(=O)c2ccccc2)c1	inconclusive [activator, partial curve, poor fit]	
CC(=O)Nc1c(I)c(NC(C)=O)c(I)c(C(=O)O)c1I	inconclusive [activator, single point]	
COc1ccc(CCNC(=O)c2ccc3c(=O)n(Cc4ccco4)c(=S)[nH]c3c2)cc1OC	inconclusive [activator, single point]	
CC(C)(C)C(=O)N1CCN(S(=O)(=O)c2ccc3c(c2)OCCCO3)CC1		inactive: 5.92%
Cc1ccc(NC(=O)c2ccccc2NS(=O)(=O)c2ccc(Cl)s2)cc1S(=O)(=O)N1CCOCC1	active: 7.31 µM	
Fc1ccc(-n2c(Cc3ccccc3)nnc2SCc2nc(-c3ccc(Cl)cc3)no2)cc1	inconclusive [activator, single point]	
CCOc1ccc(C(C)=O)cc1COC(=O)c1cnc(Cl)c(Cl)c1	inconclusive [activator, partial curve, poor fit]	
COc1ccc(-c2cnn3c4c(c(C)nc23)CCN4C(C)C)cc1OC	inconclusive [activator, partial curve]	
O=C(NCc1ccc(Cl)cc1)c1ccc(-c2ccccc2C(F)(F)F)o1	active: 23.1 µM	
COc1ccc(/C=N/NC(=O)c2cccc([N+](=O)[O-])c2)cc1O	inconclusive [activator, full curve, poor fit]	
